Results published in PubChem BioAssay AID588342 (National Center for Advancing Translational Sciences (NCATS), 2011).
Out of some 360,000 compounds screened, about 25,000 (6.9%) were called active. The shares of active, inactive and inconclusive entries below differ from those in the screen. Calls come from the whole dose curve; as a rule, active = well fitted inhibition curve with a large enough effect; inconclusive = small, poorly fitted or top-dose-only effect; inactive = flat fitted curve, though single readings scatter. A potency beside an inconclusive call is a rough fit, not a confirmed value.

Target: Luciferin 4-monooxygenase (Photinus pyralis) (UniProt P08659)
UniProt P08659, sequence (P08659 whole entry, looked up): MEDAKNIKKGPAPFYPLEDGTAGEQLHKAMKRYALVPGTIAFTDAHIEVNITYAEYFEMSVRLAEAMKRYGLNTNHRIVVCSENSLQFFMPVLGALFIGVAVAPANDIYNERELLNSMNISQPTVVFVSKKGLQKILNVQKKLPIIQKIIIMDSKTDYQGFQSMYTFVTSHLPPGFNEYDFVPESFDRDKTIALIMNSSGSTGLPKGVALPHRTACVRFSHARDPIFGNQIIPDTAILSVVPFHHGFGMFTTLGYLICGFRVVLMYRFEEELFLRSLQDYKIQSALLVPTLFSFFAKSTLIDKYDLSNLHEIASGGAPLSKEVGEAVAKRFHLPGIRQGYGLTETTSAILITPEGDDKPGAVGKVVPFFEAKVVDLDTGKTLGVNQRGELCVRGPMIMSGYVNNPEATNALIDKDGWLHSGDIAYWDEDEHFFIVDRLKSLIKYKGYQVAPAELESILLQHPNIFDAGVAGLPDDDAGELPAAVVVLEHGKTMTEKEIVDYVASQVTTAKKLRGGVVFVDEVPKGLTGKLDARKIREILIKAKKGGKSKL
Assay: qHTS profiling assay for firefly luciferase inhibitor/activator using purifed enzyme and Km concentrations of substrates (counterscreen for miR-21 project); note: nearly all actives have a fitted effect of over 55% in size;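 for activity change, negative = inhibition: plate controls were vehicle for no effect and reference inhibitor for full effect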
Conditions: purified FLuc, luminescence inhibition; activity change, negative = inhibition: at 57.5 µM (top of the series)
Method in brief: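 Biochemical qHTS of compounds, final roughly 60 µM downward over six points, against 10 nM purified firefly luciferase using Km concentrations of substrates (10 uM D-luciferin, 10 uM ATP) in Tris acetate pH 7.5 buffer; luminescence output.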
Potency is the fitted concentration of half-maximal effect; tags give direction and shape of the fitted curve.

Structure (SMILES) | Potency | activity change, negative = inhibition
CCCc1cc2c(-c3ccccc3)cc(=O)oc2cc1OCc1ccc(C(=O)O)o1 | inconclusive: 37.9 µM [inhibitor, single point] | –
CC12CCC(C/C1=N/NC(=O)Nc1ccccc1)C2(C)C (configuration not stated) | inconclusive: 13.5 µM [inhibitor, partial curve, poor fit] | –
Cc1ccc(C(c2sc3nc(-c4ccco4)nn3c2O)N2CCN(Cc3ccccc3)CC2)cc1 (configuration not stated) | inconclusive: 21.3 µM [inhibitor, partial curve, poor fit] | –
CCOc1ccc(NC(=O)Cn2c(=O)n(CCC(=O)NCCc3ccccc3)c(=O)c3ccccc32)cc1 | – | inactive: 2.55%
O=C1CC(c2ccco2)CC(O)=C1C=Nc1cc(Cl)cc(Cl)c1 (configuration not stated) | inconclusive: 13.5 µM [inhibitor, partial curve, poor fit] | –
c1ccc(-c2cc(NCCN3CCCCC3)c3ccccc3n2)cc1 | – | inactive: -2.14%
Cc1ccnc(SCC(=O)N2CCc3ccccc32)n1 | inconclusive: 19 µM [inhibitor, partial curve] | –
S=c1nccc(-c2ccc3c(c2)CCO3)[nH]1 | – | inactive: -17.2%
CCC(=O)N(C)CCc1cc2c(c(OC)c1/C=N/Nc1ccc(C(=O)O)cc1)OCO2 | inconclusive: 37.9 µM [inhibitor, single point] | –
CSc1ccccc1NC(=O)c1cc(C2CC2)on1 | inconclusive: 19 µM [inhibitor, partial curve] | –
Oc1ccc(Nc2nc(-c3ccccc3)nc3ccccc23)cc1 | inconclusive: 26.9 µM [inhibitor, single point] | –
CN(C)CC1CCCCC1OC(=O)/C=C/c1ccc(Cl)cc1Cl (configuration not stated) | – | inactive: -10.1%
COc1ccccc1-n1cnc2cc(NCc3ccccc3O)ccc21 | inconclusive: 37.9 µM [inhibitor, single point] | –
COc1cccc(C(=O)Nc2cc(Cl)c(O)c(Cl)c2)c1 | active: 15.1 µM | –
Cc1ccc([N+](=O)[O-])c(OCCN2CCc3ccccc3C2)c1 | inconclusive: 33.8 µM [inhibitor, partial curve, poor fit] | –
CC(=O)Cn1ncc(N(C)Cc2ccccc2)c(Cl)c1=O | active: 16.9 µM | –
Cc1ccccc1NC(=O)CSc1nc(N)c2c3c(sc2n1)CSC(C)(C)C3 | inconclusive: 23.9 µM [inhibitor, single point] | –
CC(=O)c1ccc(NC(=O)CCc2nnc3ccc(N4CCCC4)nn23)cc1 | inconclusive: 37.9 µM [inhibitor, single point] | –
CC(C)(C)c1ccc(C(=O)N/C(=C\c2ccco2)C(=O)O)cc1 | inconclusive: 37.9 µM [inhibitor, single point] | –
CC(=O)Cc1nsc(NC(=O)c2ccc(F)cc2)n1 | inconclusive: 37.9 µM [inhibitor, partial curve, poor fit] | –
O=C(CNCCc1ccc(Cl)cc1)Nc1ccc(C(=O)N2CCCCC2)cc1 | – | inactive: -2.84%
CN(C(=O)CCN1C(=O)/C(=C/c2ccccc2)SC1=S)C1CCS(=O)(=O)C1 (configuration not stated) | inconclusive: 9.53 µM [inhibitor, partial curve, poor fit] | –
COc1ccc(-c2cc(C)nc(SCc3cccc(C(=O)O)c3)n2)cc1 | inconclusive: 30.1 µM [inhibitor, partial curve, poor fit] | –
O=C(Nc1ccc(CN2CCOCC2)cc1)c1ccc(-c2ccc(Cl)cc2Cl)o1 | inconclusive: 37.9 µM [inhibitor, partial curve, poor fit] | –

Structure (SMILES) | Potency | activity change, negative = inhibition
CN(C)C(=O)c1ccc(NC(=O)c2cncc(Br)c2)cc1 | inconclusive: 30.1 µM [inhibitor, partial curve, poor fit] | –
O=C(COc1ccccc1)Nc1ccccc1C(=O)OCc1cc(=O)n2nc(C3CC3)sc2n1 | active: 21.3 µM | –
CCn1c(C(=O)NC2CCC(C)CC2)cc2sccc21 (configuration not stated) | active: 15.1 µM | –
Cc1ccc(Cl)cc1N1CCN(C(=O)C2CCN(Cc3nc(-c4cccc(Cl)c4)oc3C)CC2)CC1 | inconclusive: 26.9 µM [inhibitor, partial curve, poor fit] | –
CC(C)c1c(C(=O)N/N=C/c2ccsc2)nnn1-c1nonc1N | active: 21.3 µM | –
Cc1cccc(-c2nc(SCC(=O)Nc3ccc4c(c3)OCCO4)c(-c3ccccc3)[nH]2)c1 | active: 8.49 µM | –
O=C(O)Cc1ccc(C(=O)c2ccc(Cl)cc2)s1 | inconclusive: 19 µM [inhibitor, partial curve] | –
N#C/C(=C1/CCCCCN1)c1nc2ccccc2s1 | inconclusive: 37.9 µM [inhibitor, single point] | –
CSCCC(NC(=O)c1ccccc1)C(=O)N1CCCCCCC1 (configuration not stated) | – | inactive: 0.843%
Cc1c(O)cc2c(c1O)C(=O)CC(c1ccccc1)O2 (configuration not stated) | – | inactive: -18.9%
CCCc1nc2ccc(NC(=O)c3cccs3)cc2c(=O)n1Cc1ccc(Cl)cc1 | – | inactive: 3.8%
CCOc1cc(C2C(C#N)=C(N)Oc3n[nH]c(C)c32)ccc1OCCN1CCOCC1 (configuration not stated) | – | inactive: 4.53% [at 2.3 µM]
O=C1N=NC2=C1c1c3ccccc3c(O)n1CC2 | – | inactive: 2.92%
COc1ccc(NC(=O)Cn2c(SCc3ccc(C)cc3)nc3cccnc32)c(OC)c1 | active: 1.9 µM | –
O=C(Nc1ccccc1F)c1ccc(Cn2cc(Cl)cn2)cc1 | inconclusive: 19 µM [inhibitor, partial curve, poor fit] | –
COc1cccc(OC)c1C(=O)Nc1ccc2c(c1)N(C(C)=O)CCC2 | – | inactive: -0.644%
CCOc1ccc(-c2csc(NC(=O)CSCC(=O)O)n2)c2ccccc12 | inconclusive: 23.9 µM [inhibitor, partial curve] | –
CCc1c(C)nc2cc(-c3ccc(OC)cc3)[nH]n2c1=O | inconclusive: 19 µM [inhibitor, partial curve] | –
CCN(CC)c1ccc(C(=O)OCC(=O)Nc2cccc(S(=O)(=O)NC3=NCCCCC3)c2)cc1 | inconclusive: 8.49 µM [inhibitor, partial curve] | –
O=C1CC(c2ccc(Cl)cc2)Sc2nc(-c3ccc(F)cc3)nn21 (configuration not stated) | inconclusive: 37.9 µM [inhibitor, partial curve, poor fit] | –
C/C(=N/NC(=O)c1ccoc1C)c1cccc(NC(=O)C(F)(F)F)c1 | inconclusive: 21.3 µM [inhibitor, single point] | –
CCNC(=S)Nc1cc(Cl)ccc1Oc1ccccc1 | – | inactive: 0.206%
CCCCCC(O)c1cccc(OCc2ccc3ccccc3n2)c1 (configuration not stated) | inconclusive: 37.9 µM [inhibitor, partial curve, poor fit] | –
N[C@@H](Cc1ccccc1)C(=O)N1CCC(C(=O)N[C@@H](CCC(=O)O)C(=O)O)CC1 | – | inactive: 0.523%

Structure (SMILES) | Potency | activity change, negative = inhibition
COc1ccc(-c2c(C)nc3c(-c4ccc(F)cc4)cnn3c2N)cc1 | active: 0.849 µM | –
COc1ccccc1C(=O)NCC(=O)Nc1ccccc1 | inconclusive: 26.9 µM [inhibitor, partial curve] | –
Cc1ccc(COC(=O)CN2C(=O)NC3(CCCC3)C2=O)cc1 | – | inactive: 0.195%
C=CCn1nnc2sc3c(c2c1=O)CCC(C)C3 (configuration not stated) | inconclusive: 16.9 µM [inhibitor, partial curve] | –
COCCCNC(NC(=O)c1ccc(C)cc1)C(Cl)(Cl)Cl (configuration not stated) | – | inactive: -0.651%
COc1ccc(Nc2ccc(C(F)(F)F)cc2[N+](=O)[O-])cn1 | – | inactive: -2.5%
Cc1cc(-c2nnc(CCC(=O)N(C)C(C)c3cccs3)o2)no1 (configuration not stated) | inconclusive: 37.9 µM [inhibitor, single point] | –
Cc1nn(C(C)C(=O)N2CCCCC2)c(=O)c2c1sc1ccccc12 (configuration not stated) | – | inactive: -3.68%
C=CCNC(=O)c1ccc(-c2nc(-c3ccccc3)cs2)cc1 | inconclusive: 7.57 µM [inhibitor, full curve] | –
COc1cc(N(C)C)c([N+](=O)[O-])cc1C(=O)N1CCOCC1 | – | inactive: -0.0589%
Cc1occc1C(=O)NNC(=S)Nc1cccc([N+](=O)[O-])c1 | inconclusive: 21.3 µM [inhibitor, single point] | –
Nc1nonc1C(=O)N/N=C/c1ccc(Br)o1 | active: 19 µM | –
Cn1c(CN2CCCCC2)nc2cc(NC(=O)c3ccc(F)cc3)ccc21 | inconclusive: 23.9 µM [inhibitor, partial curve, poor fit] | –
CCOC(=O)c1cnc2ccccc2c1Nc1ccc(C(=O)O)cc1 | inconclusive: 21.3 µM [inhibitor, single point] | –
CCN(CC)S(=O)(=O)c1ccc(C(=O)NCc2n[nH]c(=S)n2-c2ccc(Cl)c(Cl)c2)cc1 | inconclusive: 37.9 µM [inhibitor, partial curve, poor fit] | –
O=C(O)CSCc1nc2ccccc2s1 | inconclusive: 21.3 µM [inhibitor, partial curve] | –
CC1(c2ccccc2)NC(=O)N(CC(=O)Nc2ccc(Cl)c(S(=O)(=O)N3CCCCC3)c2)C1=O (configuration not stated) | – | inactive: -0.156%
COc1ccc2cc3cc(C(=O)NCCc4ccc(OC)c(OC)c4)oc3nc2c1 | – | inactive: -1.52%
Cc1ccccc1CSc1nnc(-c2ccncc2)o1 | inconclusive: 37.9 µM [inhibitor, partial curve, poor fit] | –
N#Cc1cccc(NC(=O)C2CCN(c3ncccn3)CC2)c1 | – | inactive: -0.496%
Cc1cc(C(=O)COC(=O)COc2ccccc2C#N)c(C)n1CC1CCCO1 (configuration not stated) | active: 3.01 µM | –
Cc1nn2c3ccccc3nc2c2ccccc12 | inconclusive: 15.1 µM [inhibitor, partial curve] | –
Cc1cc(C)c(S(=O)(=O)n2cnc(C)c2)c(C)c1 | inconclusive: 23.9 µM [inhibitor, partial curve, poor fit] | –
O=C(Cc1ccsc1)NNC(=O)c1ccc(F)cc1 | inconclusive: 16.9 µM [inhibitor, partial curve] | –
